Experimental data from ChEMBL document CHEMBL1201862, “PubChem BioAssay data set” (2004).
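How tested: cells in 96-well plates exposed to compound for 48 hours at five concentrations. The concentration for 50% growth inhibition is given as GI50.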 The source made the active and inactive calls. Rule as the data show it: active = GI50 up to about 1.1 µM and inactive = higher.

system: NCI-H322M; assay: inhibition of tumour cell growth, NCI panel, 48 h

SMILES | GI50
Cc1ccc(-c2n[nH]c(=O)n2NC(=O)c2ccccc2C(=O)O)cc1 | inactive: > 100 µM
O=C(/C=C/c1ccc2c(c1)OCO2)CC(=O)C(=O)c1c[nH]c2ccccc12 | inactive: 34.6 µM
O=C(Nc1cc(Cl)c(I)c(Cl)c1)C(F)(F)F | inactive: 30.3 µM
COC(=O)[C@]1(NC(=O)c2ccccc2)C[C@H]1C=O | inactive: 33.4 µM
C/C(=N\NC(=O)c1ccncc1)c1sc(-n2nc(-c3ccccc3)cc2-c2ccccc2)nc1C | inactive: > 65.8 µM
COc1ccccc1-c1cc(O)c2c(C)ccnc2n1 | inactive: 47.1 µM
COc1cc2c(c(O)c1OC)C(O)C1CCC(=O)N1C2c1ccc2c(c1)OCO2 (stereo not drawn) | inactive: > 100 µM
CCCCCCCCCCCCCC(=O)CBr | inactive: 17.5 µM
O=C(O)c1ccccc1/N=C/c1ccc(N(CCCl)CCCl)cc1 | inactive: > 100 µM
CC(C)(C)c1cc[n+](C[n+]2ccc(C(C)(C)C)cc2)cc1 | inactive: > 100 µM
CCC1CN(C(=O)c2ccccc2)C(Cc2c[nH]c3ccccc23)C(=O)C1CC(=O)OC (stereo not drawn) | inactive: 54.3 µM
OCc1cccc(Nc2nc(O)c3[nH]cnc3n2)c1 | inactive: > 100 µM
O=C1CC(c2ccc(Cl)cc2)C2(C(=O)NC(=O)NC2=O)C(c2ccc(Cl)cc2)C1 (stereo not drawn) | inactive: 18.1 µM
N#C/C(=C\c1ccc[nH]1)C(=O)c1ccccc1 | inactive: > 100 µM
N/N=C1\C(=O)N(c2ccc(Cl)c(Cl)c2)C(=O)C1C(=O)Nc1ccc(Cl)c(Cl)c1 (stereo not drawn) | inactive: 49.1 µM
O=C(O)C1=C(Cl)c2ccccc2S1(=O)=O | inactive: > 100 µM
COC1=CC(=O)c2c(cc(COP(N)(=O)N(CCCl)CCCl)n2C)C1=O (stereo not drawn) | inactive: 2.69 µM
CSc1nc(Cl)c(Br)c(Sc2nc(N)nc3nc[nH]c23)n1 | inactive: 10.1 µM
CSc1nc2c(c(=O)n1C)N=C(c1ccc([N+](=O)[O-])cc1)CC(c1ccccc1)N2 (stereo not drawn) | inactive: > 100 µM
COc1ccc2c(c1O)C(=O)C(CCC(=O)O)CC2 (stereo not drawn) | inactive: > 100 µM
C=C(C)C(=O)O[C@@H]1C[C@@]2(C)O[C@@H]2C[C@H](O)/C(C)=C/[C@H]2OC(=O)C(=C)[C@@H]21 | inactive: > 100 µM
CC1=Nc2ccccc2S(=O)(=O)N1 | inactive: > 100 µM

SMILES | GI50
O=C(O)C12CC3CC(CC(F)(C3)C1)C2 | inactive: > 100 µM
O=C1c2ccccc2C(=O)N1CC1S(=O)(=O)OCCOS1(=O)=O | inactive: > 100 µM
c1ccc2c(CNCCCN3CCN(CCCNCc4cccc5ccccc45)CC3)cccc2c1 | inactive: 1.9 µM
COc1c(-c2cccs2)oc2c(CC(=O)O)cccc2c1=O | inactive: > 100 µM
CCOC(=O)CN.CCOC(=O)Nc1ccc(S(=O)(=O)OC)cc1.CCOC(=O)Nc1ccc(S(=O)(=O)OC)cc1 | inactive: > 50 µM
CN(C)/N=C1\C=C2CC[C@H](O[Si](C)(C)C(C)(C)C)[C@@]2(C)CC1 | inactive: 22 µM
Nc1ncc(CN2CCOCC2)c(-c2ccccc2O)n1 | inactive: > 100 µM
O=C1c2ccccc2S(=O)(=O)c2c1cccc2[N+](=O)[O-] | inactive: 2.51 µM
CCC(C)C1NC(=O)C(NC(=O)C(CC(C)C)N(C)C(=O)[C@@H]2C=CCN2C(=O)[C@H](C)O)C(C)OC(=O)[C@H](Cc2ccc(OC)cc2)N(C)C(=O)[C@@H]2CCCN2C(=O)[C@H](CC(C)C)NC(=O)C(C)C(=O)[C@H](C(C)C)OC(=O)CC1O (stereo partly drawn) | active: 0.00344 µM
COc1cc2c3c(c1O)C1(C=CC(=O)C=C1)CC3N(C)CC2 (stereo not drawn) [GLAZIOVINE] | inactive: 9.86 µM
CCCCCCCCC/C=C/C=C/C(=O)NCC(=O)NC1C(O)C(O)C(Nc2ncnc3[nH]cnc23)OC1C(O)CO (stereo not drawn) | active: 0.00123 µM
CCOC(=O)c1nc2ccc(C(F)(F)F)cc2nc1NCc1cc(OC)c(OC)c(OC)c1 | inactive: 26.3 µM
CC(=O)Oc1cc(OC(C)=O)c(OC(C)=O)c2c1CC1C(=O)C3(CCc4ccccc43)C(=O)C1C2 (stereo not drawn) | inactive: > 100 µM
C[C@H](O)CCC(=O)c1ccoc1 | inactive: > 100 µM
O=c1c2c(-c3ccccc3)c3ccccc3nc2cnn1-c1ccccc1 | inactive: > 100 µM
CC1CC(c2ccc(Cl)c(Cl)c2)=Nc2ccccc2S1 (stereo not drawn) | inactive: > 100 µM
CCOC(=O)c1cc2c([N+](=O)[O-])c(N)ccc2s1 | inactive: > 100 µM
CC(=O)c1sc2c(c1O)c(=O)n(-c1ccccc1)c(=S)n2-c1ccccc1 | inactive: > 100 µM
CSc1nnc(C(C#N)C#N)nn1 | inactive: > 100 µM
Cc1nc2c(cc1C(=O)NN)c(=O)n(C)c(=O)n2C | inactive: > 100 µM
Cn1c(=O)[nH]c2[nH]c3ccccc3c2c1=O | inactive: > 100 µM
COC(=O)C(Cc1ccccc1)/N=C/c1c(O)c(O)c(C(C)C)c2cc(C)c(-c3c(C)cc4c(C(C)C)c(O)c(O)c(/C=N/C(Cc5ccccc5)C(=O)OC)c4c3O)c(O)c12 (stereo not drawn) | inactive: 16.7 µM

SMILES | GI50
S=C(N/N=C(/c1ccccc1)c1ccccn1)Nc1cccc(Cl)c1 | active: 0.0153 µM
CCCC(=O)n1[nH]c(=O)n(-c2ccc(Cl)cc2)c1=O | inactive: > 100 µM
[N-]=[N+]=CC(=O)CCC(=O)N(c1ccccc1)c1ccccc1 | inactive: 8.24 µM
Cn1[nH]nn/c1=N\N=C\c1ccccc1 | inactive: > 10 µM
CC[C@@H]1CC[C@@H]2[C@H](CC[C@]3(C)[C@@H](OC(C)=O)CC[C@@H]23)[C@H]1COC(C)=O | inactive: 47.1 µM
CC(=O)O[C@H]1[C@@H]2[C@@H]3[C@@H](C[C@H]1C)[C@@H](C)CO[C@@]1(C)CC/C=C(/C)C[C@@H]2O[C@@H]31 | inactive: > 100 µM
COc1c2cc(C(C)(C)C)cc1Cc1cccc(c1OCc1cccc([N+](=O)[O-])c1)Cc1cc(C(C)(C)C)cc(c1OC)Cc1cccc(c1OCc1cccc([N+](=O)[O-])c1)Cc1cc(C(C)(C)C)cc(c1OC)Cc1cccc(c1OCc1cccc([N+](=O)[O-])c1)C2 | inactive: > 50 µM
CN(C)C(=N)NC(=S)N(C)C | inactive: > 100 µM
Cc1ccc2c(c1)C(=O)c1[nH]c3ccc(F)cc3c1CO2 | inactive: 59.4 µM
CCC(=O)Nc1ccc(NCC(=O)Nc2ccc(Cl)cc2)cc1 | inactive: 13.5 µM
COc1c2c(cc3c1OCO3)[C@]13C=C[C@H](OC)C[C@H]1N(C2)CC3O (stereo partly drawn) | inactive: > 100 µM
COc1ccc(CNC(=O)[C@H](Cc2ccc(O)cn2)NC(C)=O)cc1OC | inactive: > 100 µM
COc1ccc2c(c1)[n+]([O-])c(-c1cccc(Cl)c1)c(N)[n+]2[O-] | inactive: 24.7 µM
COc1ccc(CCn2ccc(=O)c(O)c2C)cc1OC | inactive: 24.9 µM
N=C(N)Nc1ccc(CC(N)C(=O)NCC(=O)C(CC(=O)O)c2ncc(NC(=O)C(F)(F)F)o2)cc1 (stereo not drawn) | inactive: > 25 µM
Cc1c(-c2nnc(-c3ccc(Cl)cc3)o2)c(=O)n(-c2ccccc2)n1C | inactive: > 100 µM
CC(=O)c1ccc(-c2ccc(C(C)=O)s2)s1 | inactive: > 100 µM
CCCCCCCCCCCCCS(=O)(=O)NCC(N)=O | inactive: > 10 µM
CC(C)[C@H](NC(=O)[C@@H](O)[C@H](N)Cc1ccccc1)C(=O)N[C@@H](Cc1ccccc1)C(=O)O | inactive: > 100 µM
O=C(NC12CC3CC(CC(C3)C1)C2)n1cnc2c(Cl)ncnc21 | inactive: 30.9 µM
O=[N+]([O-])C=C1c2ccccc2-c2ccccc21 | inactive: 17.6 µM
CS(=O)(=O)N(CC(=O)O)Cc1ccccc1 | inactive: > 100 µM

SMILES | GI50
C/C(=N\Nc1nc2ccccc2o1)c1ncccn1 | active: 0.0273 µM
C1=CC2SSSC2C1 (stereo not drawn) | inactive: > 100 µM
[N-]=[N+]=Nc1ccccc1Oc1ccccc1 | inactive: > 100 µM
O=C(O)CSSCC(=O)O | inactive: > 100 µM
O=C1CS(=O)(=O)C(c2cccc(Oc3ccccc3)c2)N1C1CC1 (stereo not drawn) | inactive: 65.2 µM
COc1cccc(CC(C)NCC(O)c2ccc(O)c(O)c2)c1 (stereo not drawn) | inactive: 36.2 µM
C=C1c2nc3ccccc3n2C=C(c2ccc(Cl)cc2)N1c1ccccc1 | inactive: 20 µM
O=C(CNC(=O)OCc1ccccc1)Oc1ccccc1 | inactive: > 100 µM
OCCCCn1cc(Cn2ncc3c(SCc4ccccc4)ncnc32)nn1 | inactive: > 100 µM
COC(=O)C1(SC)C2CCC3C2CCC31 (stereo not drawn) | inactive: > 100 µM
CC1=C[C@@H](C)C[C@]2(C)CC[C@H](O2)[C@]23CC[C@](C(=O)O)(C[C@H](O2)[C@@H]2O[C@@](C)(CC2=O)[C@@H](O)[C@H]2CC[C@@]4(CCC[C@@H](O4)[C@H](C)C(=O)O[C@H]4C[C@H]([C@]5(O)OCC[C@H](C)[C@@H]5O)O[C@H]4C=C1)O2)O3 | inactive: > 10 µM
N#CCCC(CCC#N)(CCC#N)NO | inactive: > 100 µM
Cc1ccc(C(=O)CCC2C(=O)CC(C)(C)CC2=O)cc1 | inactive: > 100 µM
COc1c2c(c(O)c3c4c(c(C)cc13)C1OC3(C(OC)OC5CC(C)(O)C(OC6CC(C)(O)C(O)C(C)O6)C(C)O5)OC1C(OC)(O4)C31CO1)C(=O)C(O)CC2OC1CC(C)(O)C(OC(C)=O)C(C)O1 (stereo not drawn) | active: < 0.01 µM
CN(C)CC/C(=N\Nc1ccc(Cl)cc1Cl)c1ccccc1 | inactive: 27 µM
CNC(=O)OC1/C(C)=C\C(C)C(O)C(OC)CC(C)CC2=C(OC)C(=O)C=C(C2=O)N(C)C(=O)/C(C)=C/C=C\C1OC (stereo not drawn) | inactive: 21.4 µM
Cc1ccc(NC(=O)CCC/C(CC(=O)c2ccc(Br)cc2)=N/NC(=O)CC#N)cc1 | inactive: > 100 µM
C/C(=N\NC(N)=S)c1ccc(C)c(C)c1 | inactive: > 100 µM
Cc1ccc(Nc2nc(=O)[nH]c(=O)[nH]2)cc1N | inactive: > 100 µM
Cc1ccc(/C=C/C(=O)Oc2ccc(/C=C3\CCC/C(=C\c4ccc(OC(=O)/C=C/c5ccc(C)cc5)cc4)C3=O)cc2)cc1 | inactive: > 100 µM
COc1cccc2nc3c(C(=O)NCCN(C)C)cccc3cc12 | inactive: 2.74 µM
COc1cc(C(C[N+](=O)[O-])SC(C)=O)ccc1OCc1ccccc1 (stereo not drawn) | inactive: 8.22 µM
